Screen size: about 310,000 compounds; about 2,200 (0.71%) showed an effect of 50% or more. Effects have a minus sign here. This is one part of the list.
Each compound was assayed against human ether-à-go-go-related gene (hERG) potassium channel (human, UniProt Q12809) (assay: primary screen, population patch clamp on CHO cells stably expressing hERG).
Sequence of human ether-à-go-go-related gene (hERG) potassium channel (Q12809 whole entry, looked up): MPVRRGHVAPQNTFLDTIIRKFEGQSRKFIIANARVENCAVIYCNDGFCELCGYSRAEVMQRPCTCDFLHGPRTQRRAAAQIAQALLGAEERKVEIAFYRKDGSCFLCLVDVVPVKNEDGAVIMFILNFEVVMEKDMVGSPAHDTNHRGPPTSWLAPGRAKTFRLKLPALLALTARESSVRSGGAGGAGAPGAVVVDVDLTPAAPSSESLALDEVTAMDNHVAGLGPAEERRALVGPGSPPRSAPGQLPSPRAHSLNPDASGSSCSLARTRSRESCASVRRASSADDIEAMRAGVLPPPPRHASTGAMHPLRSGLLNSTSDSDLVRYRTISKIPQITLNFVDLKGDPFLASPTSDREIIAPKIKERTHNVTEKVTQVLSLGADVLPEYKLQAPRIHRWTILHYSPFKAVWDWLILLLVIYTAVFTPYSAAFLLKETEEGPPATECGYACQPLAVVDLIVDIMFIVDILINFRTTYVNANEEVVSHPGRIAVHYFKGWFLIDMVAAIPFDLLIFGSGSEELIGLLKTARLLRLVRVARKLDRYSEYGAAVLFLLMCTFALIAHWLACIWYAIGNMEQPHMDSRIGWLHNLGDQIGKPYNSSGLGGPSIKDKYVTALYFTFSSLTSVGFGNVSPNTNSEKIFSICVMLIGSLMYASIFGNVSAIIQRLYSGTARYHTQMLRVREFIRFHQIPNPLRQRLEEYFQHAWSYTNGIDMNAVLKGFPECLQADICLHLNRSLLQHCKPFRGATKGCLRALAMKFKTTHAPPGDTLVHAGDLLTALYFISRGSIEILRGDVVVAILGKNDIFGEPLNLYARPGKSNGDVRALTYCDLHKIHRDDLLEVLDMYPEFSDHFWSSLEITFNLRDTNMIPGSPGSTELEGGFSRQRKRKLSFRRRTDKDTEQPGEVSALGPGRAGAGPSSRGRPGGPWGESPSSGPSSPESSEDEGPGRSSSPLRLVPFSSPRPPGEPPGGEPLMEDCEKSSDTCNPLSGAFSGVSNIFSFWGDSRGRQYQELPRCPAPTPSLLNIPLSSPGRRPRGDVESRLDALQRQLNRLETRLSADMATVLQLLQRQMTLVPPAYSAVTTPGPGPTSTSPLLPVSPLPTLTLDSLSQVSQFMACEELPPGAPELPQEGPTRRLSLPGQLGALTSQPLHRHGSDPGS

Going from CCOC(=O)Nc1cc2c(C)cc(=O)oc2cc1C to CCOC(=O)c1cnc2c(C)cccc2c1NCc1ccco1, the “hERG current change (%, negative = inhibition) at 1uM” value falls from 14.4% to -45.3%.

Going from COC(=O)c1cccc(C(=O)Oc2cccc(Br)c2)n1 to CC(C)Oc1cccc(NC(=O)c2cnccc2C(F)(F)F)c1, the “hERG current change (%, negative = inhibition) at 1uM” value rises from 2.4% to 10.8%.

First: COc1ccccc1CNC(=O)CCC(=O)N1Cc2cccc(OC)c2Oc2ncccc21
Second: Cc1ccccc1OCCC(=O)N(CC(=O)Nc1ccccc1C(F)(F)F)Cc1ccco1
The “hERG current change (%, negative = inhibition) at 1uM” value of the first is higher: 10.1% for the first, 2.85% for the second.

Compared with CCc1nc(SCC(=O)NCc2ccco2)c2c3c(sc2n1)CCCC3, COC(=O)c1c(NC(=O)COC(=O)Cn2cnc3ccccc32)sc2c1CCCC2 is lower in “hERG current change (%, negative = inhibition) at 1uM” value: 5.72% for the first, 1.92% for the second.

Compared with CCSc1sccc1C1C(C#N)=C(N)N(c2cccnc2)C2=C1C(=O)CCC2 (centres unmarked), Cc1ccc(C)c(C(=O)CSc2nc3ccccc3c(=O)[nH]2)c1 is higher in “hERG current change (%, negative = inhibition) at 1uM” value: -3.01% for the first, 11.7% for the second.

First: O=C(O)C[C@@H](CNC(=O)COc1ccc2ccc(=O)oc2c1)c1ccc(Cl)cc1
Second: CCC(C)NCCC(=O)Nc1ccc(Cl)c(S(=O)(=O)Nc2ccc(Cl)cc2)c1 (centres unmarked)
The “hERG current change (%, negative = inhibition) at 1uM” value of the first is higher: 2.62% for the first, -15.9% for the second.

Compared with COc1cccc(CC2(CO)CCN(S(=O)(=O)N(C)C)CC2)c1, COc1ccc(N(CC(=O)N2CCOCC2)S(C)(=O)=O)cc1Cl is lower in “hERG current change (%, negative = inhibition) at 1uM” value: 12.7% for the first, -1.45% for the second.

First: Cc1ccc(/C=N/Nc2ccccn2)s1
Second: Cc1c(N=Cc2ccccn2)c(=O)n(-c2ccccc2)n1C
The “hERG current change (%, negative = inhibition) at 1uM” value of the first is higher: 13.7% for the first, 4.31% for the second.

Going from CC(C)N1CCC(N2CCN(C3CCCC3)CC2CCO)CC1 (centres unmarked) to CCOC(=O)C1CCN(C(=O)COC(=O)C2CCN(S(=O)(=O)c3ccc(C)c(C)c3)CC2)CC1, the “hERG current change (%, negative = inhibition) at 1uM” value rises from 4.59% to 4.73%.

First: CCOc1ccc(N(CC(=O)NCCc2ccccc2)C(=O)CCC(=O)Nc2cc(C)ccn2)cc1
Second: CCN(CC(=O)Nc1cc(Cl)ccc1C)C(=O)C1CC(=O)N(Cc2ccccc2)C1 (centres unmarked)
The “hERG current change (%, negative = inhibition) at 1uM” value of the first is lower: 3.93% for the first, 4.18% for the second.

First: CC(=O)c1cccc(NC(=O)CSc2nnc(-c3ccc(S(=O)(=O)N4CCCC4)cc3)o2)c1
Second: CN(C)S(=O)(=O)c1ccc(Cl)c(NC(=O)COC(=O)/C=C/c2ccc(S(=O)(=O)N3CCOCC3)cc2)c1
The “hERG current change (%, negative = inhibition) at 1uM” value of the first is lower: -7.21% for the first, 16.2% for the second.

First: COc1cc(C(=O)Nc2nnc(C(F)(F)F)s2)c([N+](=O)[O-])cc1OC
Second: COC(=O)C1=C(C(=O)c2ccc(C)cc2)C(c2ccc(OC)c(OC)c2)n2nnnc2N1 (centres unmarked)
The “hERG current change (%, negative = inhibition) at 1uM” value of the first is lower: 15.5% for the first, 16% for the second.

Going from CN(c1ccccc1)S(=O)(=O)c1ccc(NC(=O)c2ccco2)cc1 to CC(NC(=O)C(c1ccccc1)c1ccccc1)c1ccc(S(N)(=O)=O)cc1 (centres unmarked), the “hERG current change (%, negative = inhibition) at 1uM” value rises from 4.81% to 13.8%.

Going from O=S(=O)(c1ccccc1)N1CCN(c2nc(-c3cccs3)nc3ccccc23)CC1 to CC1SC(=Nc2ccccc2)N(S(=O)(=O)c2ccccc2)C1=O (centres unmarked), the “hERG current change (%, negative = inhibition) at 1uM” value rises from 14.8% to 16.3%.

First: CC(C)On1c(SCC(=O)N(C)C)nc2ccccc2c1=O
Second: COc1ccccc1NC(=O)N1CCC(c2nnc(SCC(N)=O)n2C)CC1
The “hERG current change (%, negative = inhibition) at 1uM” value of the first is lower: 8.8% for the first, 18.9% for the second.

Going from OCCN(CC(O)Cn1ccc2ccccc21)CC(O)Cn1ccc2ccccc21 (centres unmarked) to Fc1ccc(-c2cc(-c3ccccc3)nc(-n3cccn3)n2)cc1, the “hERG current change (%, negative = inhibition) at 1uM” value falls from 4.62% to 3%.

First: Cn1c(-c2ccc(F)cc2)cnc1NCc1cc2c(cc1[N+](=O)[O-])OCO2.O=C(O)C(=O)O
Second: CCCCN(C(=O)c1ccc(-c2ccc(Cl)cc2)o1)c1c(N)n(CC(C)C)c(=O)[nH]c1=O
The “hERG current change (%, negative = inhibition) at 1uM” value of the first is lower: -21.6% for the first, 19% for the second.

Compared with O=C(COc1ccc(S(=O)(=O)N2CCOCC2)cc1Cl)N1CCOCC1, O=C(NCCC1=CCCCC1)c1cc(S(=O)(=O)N2CCOCC2)ccc1Cl is lower in “hERG current change (%, negative = inhibition) at 1uM” value: 14.5% for the first, 5.24% for the second.

Compared with Clc1ccc(-c2nnc3n2CCCC3)cc1Cl, Clc1ccc(Cl)c(OCCN2CCOCC2)c1 is lower in “hERG current change (%, negative = inhibition) at 1uM” value: 16.4% for the first, 7.42% for the second.

First: CCOc1ccc(/C=N/NC(=O)C2CC2)cc1OC
Second: COc1ccc(/C=N/NC(=O)c2ccc(Cl)c(S(N)(=O)=O)c2)cc1OCC(N)=O
The “hERG current change (%, negative = inhibition) at 1uM” value of the first is higher: 19.1% for the first, -0.711% for the second.

Going from COc1cccc(/C=C2\SC(=S)N(CCCC(=O)N(CCO)c3ccccc3)C2=O)c1 to O=C(O)C(c1ccccc1)N1C(=O)/C(=C/c2cccs2)SC1=S (centres unmarked), the “hERG current change (%, negative = inhibition) at 1uM” value rises from 11.3% to 14.6%.

Going from CN1CCc2nc(NC(=O)COc3ccc4ccccc4c3)sc2C1 to O=C(CCc1ccccc1)Nc1cc2c3c(c1)CC(=O)N3CCC2, the “hERG current change (%, negative = inhibition) at 1uM” value falls from 11.7% to 4.53%.

Going from O=C(c1cccc(C(F)(F)F)c1)C1CCCN(C(=O)CCn2cnnn2)C1 (centres unmarked) to COC(=O)[C@H](Cc1ccccc1)NC(=O)N1CCCCCC1, the “hERG current change (%, negative = inhibition) at 1uM” value rises from 4.61% to 5.61%.

First: C/C(=C\C(=O)c1ccc(Cl)cc1Cl)N(C)C
Second: S=C(Nc1cc(Cl)ccc1Cl)Nn1cnnc1
The “hERG current change (%, negative = inhibition) at 1uM” value of the first is lower: 3.32% for the first, 18.7% for the second.

Going from CC(C)/C=N/Nc1nc2c(c(=O)n(C)c(=O)n2C)n1C to CCCn1c(=O)[nH]c(=O)c2c1nc(-c1ccc(C(F)(F)F)cc1)n2CCOC, the “hERG current change (%, negative = inhibition) at 1uM” value rises from 7.34% to 10.1%.

Compared with CCN1C(=O)[C@@H]2[C@@H](c3ccc(-c4ccc(C(C)=O)cc4)cc3)N3CCCC[C@@]3(C(=O)OC)[C@@H]2C1=O.O=C(O)C(F)(F)F, COc1ccc(-c2noc(=O)n2Cc2ccc(C#N)cc2)cc1 is lower in “hERG current change (%, negative = inhibition) at 1uM” value: 10.1% for the first, -20.8% for the second.

Compared with COCCN(C(=O)COC(=O)c1ccccc1Oc1ccccc1)c1c(N)n(Cc2ccccc2)c(=O)[nH]c1=O, O=C(Nc1ccccc1C(=O)OCn1nnc2ccccc2c1=O)c1ccco1 is higher in “hERG current change (%, negative = inhibition) at 1uM” value: 5.73% for the first, 21.8% for the second.

First: O=C(C1CCN(S(=O)(=O)N2CCOCC2)CC1)N1CCC2(CC1)OCCO2
Second: Cc1ccc(C)c(N2CCN(S(=O)(=O)c3c(C)[nH]c(C)c3C(=O)N3CCCC3)CC2)c1
The “hERG current change (%, negative = inhibition) at 1uM” value of the first is lower: 13.7% for the first, 14.4% for the second.

Going from COc1ccc(/C=N/Nc2nc(N3CCCC3)nc(N3CCCC3)n2)cc1O to COc1cccc(N2CCN(C(=S)Nc3ccc(C)cc3C)CC2)c1, the “hERG current change (%, negative = inhibition) at 1uM” value rises from 7.51% to 12.1%.

Going from CCOc1cc(C(=O)NC2=NCCS2)cc(OCC)c1OCC to COc1ccc(CCNC(=O)COc2ccc(C)nc2[N+](=O)[O-])cc1, the “hERG current change (%, negative = inhibition) at 1uM” value falls from 8.34% to 6.46%.

First: Cn1c(Cc2ccccc2)nnc1SCC(=O)Nc1ccccc1
Second: CN(C)c1nc(NCc2ccccc2)nc(SCC(=O)Nc2ccc(Cl)c(Cl)c2)n1
The “hERG current change (%, negative = inhibition) at 1uM” value of the first is higher: 8.11% for the first, -2.44% for the second.

Compared with O=S(=O)(NCC1CCCO1)c1ccc(S(=O)(=O)N(Cc2ccc(F)cc2)C2CCCCC2)cc1 (centres unmarked), Cc1cc(C(=O)COC(=O)c2ccccc2Br)c(C)n1CC1CCCO1 (centres unmarked) is lower in “hERG current change (%, negative = inhibition) at 1uM” value: 1.01% for the first, -7.72% for the second.

Compared with O=C(O)c1cc(-n2[nH]c(=O)c3ccccc3c2=O)ccc1Cl, COc1ccc2c(c1)CCC(C)N2C(=O)C(=O)c1c[nH]c2ccccc12 (centres unmarked) is higher in “hERG current change (%, negative = inhibition) at 1uM” value: 8.37% for the first, 19.7% for the second.

Compared with CC(=O)c1cnc2cc(-c3ccc(Cl)cc3)nn2c1C, Cc1c(C(=O)Nc2ccc(-n3cnnn3)cc2)oc2ccccc12 is higher in “hERG current change (%, negative = inhibition) at 1uM” value: 5.14% for the first, 10.2% for the second.

Compared with Cn1cc([N+](=O)[O-])c(C(=O)NC2CCCCCC2)n1, Cc1ccc(NC(=O)C2CCCCC2)c(O)c1 is lower in “hERG current change (%, negative = inhibition) at 1uM” value: 15.5% for the first, 14.5% for the second.

Compared with C#Cc1ccc([C@H]2C=C(C(=O)O)O[C@@H](OCCCCO)C2)cc1, CCCCOc1ccc(Cc2n[nH]c(=S)n2N)cc1 is lower in “hERG current change (%, negative = inhibition) at 1uM” value: 21.1% for the first, 11.4% for the second.

Compared with COc1ccc(N2CCN(S(=O)(=O)c3ccc4c(c3)NC(=O)C(C)S4)CC2)cc1 (centres unmarked), O=C(c1ccc(N2CCN(C(=O)c3ccccc3Br)CC2)cc1)c1cccc(F)c1 is lower in “hERG current change (%, negative = inhibition) at 1uM” value: 9.05% for the first, 6.89% for the second.

Compared with CN1C2CCC1CC(NC(=O)CSc1ccc(C(C)(C)C)cc1)C2 (centres unmarked), Cc1cc(C)nc(SCc2ccc(C(=O)NN=C3C4CC5CC(C4)CC3C5)cc2)n1 is lower in “hERG current change (%, negative = inhibition) at 1uM” value: 8.3% for the first, -4.87% for the second.

Going from Cl.c1ccc(CN2C3=NCCCN3c3ccccc32)cc1 to CN1CCN(C(=S)c2cn(Cc3ccc(Br)cc3)c3ccccc23)CC1, the “hERG current change (%, negative = inhibition) at 1uM” value rises from -29% to 13.6%.

First: Cc1cccc(NC(=O)c2ccc([N+](=O)[O-])s2)n1
Second: Cc1ccc(N2CC(C(=O)NCc3ccc(C)n3C)CC2=O)cc1 (centres unmarked)
The “hERG current change (%, negative = inhibition) at 1uM” value of the first is higher: 11.1% for the first, 3.75% for the second.

Compared with S=C(Nc1cccc2ccccc12)NN1CCOCC1, O=C(NCCN1C(=O)S/C(=C\c2ccccc2)C1=O)c1cc(S(=O)(=O)N2CCOCC2)c(Cl)cc1Cl is lower in “hERG current change (%, negative = inhibition) at 1uM” value: 3.81% for the first, 0.756% for the second.

Going from COC(=O)c1ccc(NC2=C(Cl)C(=O)OC2OC(=O)c2ccccc2)cc1 (centres unmarked) to O=C(CCc1c[nH]c2ccccc12)NC(Cc1ccccc1)C(=O)O (centres unmarked), the “hERG current change (%, negative = inhibition) at 1uM” value rises from 6.59% to 18.4%.

First: CC(=O)c1sc(N)c(C(=O)OC(C)C)c1C
Second: CC(C)[N+]1=C2C=CC=CC=C2SC12C([N+](=O)[O-])=CC(=[N+]([O-])[O-])C=C2[N+](=O)[O-] (centres unmarked)
The “hERG current change (%, negative = inhibition) at 1uM” value of the first is lower: 9.23% for the first, 9.83% for the second.
